From PubChem BioAssay AID1963576 (National Center for Advancing Translational Sciences (NCATS), 2024)
About 60 (0.1%) of roughly 46,000 compounds were called active. Roughly 3% stayed inconclusive and do not appear here. Calls follow the shape of the dose curve; as a rule, active = well fitted inhibition curve with a large enough effect; inconclusive = small, poorly fitted or top-dose-only effect; inactive = no such curve, though single readings can be large or run the other way. The list shows a part of the results.

Assay: Primary qHTS assay for Inhibitors of ovarian cancer metastasis using an organotypic tumor microenvironment (TME) model. Also: nearly all actives have a fitted effect of over 65% in size.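 As to activity change, negative = inhibition: plate controls were DMSO wells for no effect and tomatine positive control wells for full effect.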
Details: SKOV3ip1-GFP adhesion/invasion on 3D omental model, fluorescence; series mostly up to 45.8 µM; activity change, negative = inhibition: at the top concentration
Procedure, shortened: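 qHTS, 4-pt dose (0.36-46 umol/L); SKOV3ip1-GFP, 1,200 cells/well, no FBS; primary omental fibroblast/mesothelial co-culture 48 h pre-grown; 2 h RT + 16 h 37 C; PBS wash, 4% PFA; GFP count 488/509 nm.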

Activity change, negative = inhibition, inactive:
COc1ccc(C(=O)Nc2nnc(S(=O)(=O)N(CC(C)C)c3ccc(C)cc3)s2)cc1OC -2.24%
CCOC(=O)c1sc(NC(=O)C2c3ccccc3Oc3ccccc32)c(C(=O)OCC)c1C 0.94%
O=C(CSc1nc(=O)n(CCN2CCOCC2)c2c1CCC2)Nc1ccccc1 0.448%
CC(=O)c1ccc(NC(=O)COc2ccccc2-c2nc(-c3cccc(C)c3)no2)cc1 2.46%
Cc1ccccc1Nc1nc(-c2cccc(Cl)c2)c2c(n1)-c1ccccc1OC2 6.25%
CC(NC(=O)Cn1c(=O)oc2cc(S(=O)(=O)NCc3ccccc3)ccc21)c1ccccc1 (stereo unspecified) 4.46%
O=C(Nc1ccc(S(=O)(=O)Nc2ncccn2)cc1)c1ccccc1Cl -2.29%
Cc1ccc2c(c1)N(C(=O)CCC(=O)NCc1ccccc1Cl)CC(C)O2 (stereo unspecified) -3.41%
COC(=O)c1cccnc1-n1c(=O)c2cccnc2n(CC(=O)Nc2ccc(C)cc2C)c1=O 4.08%
Cn1c(=O)c2c(ncn2CC(=O)Nc2cccc(Cl)c2Cl)n(C)c1=O -6.21%
CN(C(=O)Cn1cc(S(=O)(=O)Cc2ccccc2Cl)c2ccccc21)c1ccccc1 20.4%
Cc1cccc(NC(=O)Nc2nnc(N(C)Cc3ccccc3)s2)c1 6.9%
CC(=O)c1ccc(NC(=O)c2sc(-n3nc(C)c(Cc4ccccc4)c3C)nc2C)cc1 6.43%
Cc1ccc(Cl)cc1N1CCN(S(=O)(=O)c2ccc3c(c2)CC(C)N3C(=O)C2CCC2)CC1 (stereo unspecified) 3.25%
Cc1noc(/C=C/c2cccs2)c1S(=O)(=O)N1CCC(C(=O)NCc2ccccc2Cl)CC1 3.81%
CCN(Cc1ccccc1)Cc1c(O)ccc2c(=O)c(-c3ccc(Cl)cc3Cl)coc12 2.47%
COc1cccc(Cn2c(CNC(=O)c3cc([N+](=O)[O-])ccc3Cl)nc3cccnc32)c1 -61.6%
Cc1ccccc1C(=O)NC1(C(F)(F)F)C(=O)Nc2c1c(=O)[nH]c(=O)n2-c1ccc(F)cc1 (stereo unspecified) 1.43%
CCCc1cnc2c(c1SCC(=O)Nc1ccc(C)c(Cl)c1)c(=O)n(C)c(=O)n2C -9.31%

outcome, inactive:
CCn1cc(C(=O)NCc2ccccc2Cl)c(=O)c2cc(S(=O)(=O)N3CCc4ccccc4C3)ccc21
COc1ccccc1CNC(=O)CCCn1c(=O)c2ccccc2n(CC(=O)Nc2c(C)cc(C)cc2C)c1=O
COCCCNC(=O)c1ccc2c(c1)N(Cc1ccccc1)C(=O)c1ccccc1S2
COc1ccc(NC(=O)CSc2nnc(NC(=O)Nc3ccccc3)s2)cc1OC
O=C(Nc1cc(C(F)(F)F)ccc1Cl)c1cc(-c2ccc3c(c2)OCCO3)on1
COc1ccc(-c2nn3c(-c4ccccc4C)nnc3c3ccccc23)cc1
CCOCCCNc1ncnc2onc(C)c12
